Assay results published in the supplement of paper PMC3334620.
Whole data set: some 33,000 sequences, median “E-score (-0.5 to 0.5)” near -0.036, cut for the highest 2% near 0.37. Some of the results follow.

Molecular target: T1, Yer064c (UniProt P40041)
T1 sequence: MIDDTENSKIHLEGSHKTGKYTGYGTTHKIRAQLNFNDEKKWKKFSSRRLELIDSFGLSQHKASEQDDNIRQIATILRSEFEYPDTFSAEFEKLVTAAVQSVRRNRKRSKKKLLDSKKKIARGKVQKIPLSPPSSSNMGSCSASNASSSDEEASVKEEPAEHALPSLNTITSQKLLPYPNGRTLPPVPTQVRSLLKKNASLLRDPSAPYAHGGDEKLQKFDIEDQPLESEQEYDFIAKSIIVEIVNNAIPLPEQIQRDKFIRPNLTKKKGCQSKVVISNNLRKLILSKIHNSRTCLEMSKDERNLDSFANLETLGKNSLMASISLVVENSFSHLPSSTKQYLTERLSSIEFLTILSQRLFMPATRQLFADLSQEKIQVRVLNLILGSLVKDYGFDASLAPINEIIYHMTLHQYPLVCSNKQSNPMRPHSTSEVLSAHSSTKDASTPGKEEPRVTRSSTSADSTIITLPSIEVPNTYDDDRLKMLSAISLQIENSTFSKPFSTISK
Assay: PBM E-score (8-mer binding enrichment) (E-score (-0.5 to 0.5)); higher = stronger / more preferred TF binding; most listed sequences are background and not binding sites
Conditions: protein concentration: 200 nM; construct: GST-full length
Procedure, shortened: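 E-scores (a modified Wilcoxon-Mann-Whitney statistic) were assigned by the Universal PBM Analysis Suite to every ungapped eight-base word pooled with its reverse complement. The input came from universal all-10-mer Agilent arrays made double-stranded by primer extension and probed with GST-tagged yeast transcription factors at about 100-200 nM. Fluorescent anti-GST detected bound protein, and masliner normalised the scans.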

Row | Sequence | PBM E-score
1 | GATCGTTA | -0.0132
2 | AGGACACA | 0.0147
3 | GATGACGA | 0.0355
4 | TCCTAAAA | 0.0567
5 | CACCAGAA | -0.168
6 | CTTCCGAA | -0.117
7 | CATTCCAA | -0.0809
8 | CGCCAGAA | -0.04
9 | AAGCTCCA | -0.105
10 | ACCGGCCC | -0.205
11 | CTAGAAGA | 0.19
12 | TTAGGAAA | -0.143
13 | GCGGTCGA | -0.0541
14 | CGGGTATC | -0.204
15 | TGGGGCAA | -0.35
16 | AGGAATAC | -0.0993
17 | CATAAAGC | 0.0324
18 | ATACACAG | 0.109
19 | GGGTTATA | 0.0263
20 | ATATTTAG | 0.228
21 | GATCCGGA | -0.112
22 | AATTTCGC | -0.141
23 | ATACGGCG | -0.138
24 | ATAGCATC | -0.0406
25 | GACACCTC | -0.118

Row | Sequence | PBM E-score
26 | CACTCTTA | -0.016
27 | CTTGAAAC | -0.0405
28 | ACTCCAGA | 0.151
29 | GCCCGGGC | -0.107
30 | GCGTGTCA | 0.112
31 | AGAACGAT | 0.0607
32 | ACTAGTAG | 0.164
33 | CTTCGACA | 0.112
34 | ATGCGCAC | -0.301
35 | CGGAATAC | -0.112
36 | CATCCTAG | 0.0362
37 | AGGAAGAG | 0.0156
38 | AGGTCTCA | 0.176
39 | ATCGTACA | 0.0975
40 | ACACTCTA | 0.00264
41 | TCCTCACA | 0.0653
42 | TACTAAAA | -0.00832
43 | ACGGAGAG | -0.107
44 | ACCCGTCT | -0.124
45 | AAATGTCA | -0.0301
46 | GAGAGTGA | 0.195
47 | CCGAACGA | -0.0321
48 | GGGAAACA | -0.0345
49 | AATGTATG | -0.0582
50 | ATTTTTTA | 0.0802

Row | Sequence | PBM E-score
51 | AGCCCGCG | -0.172
52 | TGTCGGAA | -0.184
53 | GATCGCCA | -0.201
54 | GACCGGAA | -0.133
55 | CATCCATG | -0.0786
56 | CAAACGAC | 0.0734
57 | AGGGCGAA | -0.223
58 | AAAGCGTG | -0.042
59 | CCTGAGGC | -0.16
60 | CCAGCCCA | -0.172
61 | AACGGGGA | 0.122
62 | GCCAAGGA | -0.101
63 | CGCTTTAC | -0.205
64 | CGTGTTTA | 0.0622
65 | CGCGGACA | 0.0886
66 | GCCTGCGA | -0.22
67 | AATGAACT | 0.0229
68 | TCATCCAA | 0.236
69 | GCAATTGA | 0.0418
70 | CTGTTAGC | -0.0341
71 | GCGGGAGA | -0.15
72 | ACTAAATC | 0.32
73 | CACACGGC | -0.0241
74 | CAGTATAG | 0.0294
75 | AAAGATGA | 0.286

Row | Sequence | PBM E-score
76 | GGAAGTGA | 0.0158
77 | AGATTGAG | 0.191
78 | AAGATGAC | 0.312
79 | CAATCACC | 0.343
80 | CAAAACGC | -0.00379
81 | CGCGCGCC | -0.033
82 | ACAGAGGC | -0.124
83 | ATAAGTAC | -0.0959
84 | CCAAGGCG | -0.0198
85 | ATTAAGGG | -0.0881
86 | CCGCAGAC | -0.262
87 | CGTTTTTC | -0.104
88 | GACACCGC | -0.106
89 | AAGAAGGA | -0.00132
90 | TGAGTGCA | 0.0616
91 | GAGTCAAC | 0.474
92 | AAGGATAT | -0.0431
93 | ACACCGCA | -0.0478
94 | CCCGCAAG | -0.346
95 | AATTAGGA | 0.0204
96 | AATTTTTA | 0.037
97 | AACACCCG | 0.08
98 | ACACGTAC | -0.0311
99 | AGAGGCGA | -0.198
100 | CAACGGTC | -0.186

Row | Sequence | PBM E-score
101 | AGAGGCAA | -0.189
102 | ACCTTCTA | -0.0941
103 | GCCCCATA | -0.0804
104 | GAGCAATC | 0.146
105 | GGAGGCCA | -0.386
106 | AGTGCTCG | 0.0135
107 | CCTACGCG | -0.176
108 | GCTAGGAA | -0.123
109 | CCAACAGA | -0.124
110 | CAGAAAAA | -0.104
111 | CACCTACC | -0.159
112 | ATCTCGAG | 0.077
113 | GGGCTAAA | -0.133
114 | CATTCTAG | 0.0408
115 | ACACCGCT | -0.08
116 | CGGGTTTA | -0.017
117 | AGCGGGGA | -0.0712
118 | ACGACCAA | 0.00728
119 | CTCGTGAC | 0.307
120 | CCTGGCCG | -0.212
121 | GGACCTAC | -0.132
122 | CACAGAGG | -0.107
123 | ACACTTCG | -0.0332
124 | CCTATGCA | -0.157
125 | AAATTTCT | -0.252

Row | Sequence | PBM E-score
126 | AGGTAATG | -0.0492
127 | GCTTGGAA | -0.102
128 | AATTTAAA | 0.171
129 | GACCACGC | 0.322
130 | CCACACGC | -0.0721
131 | TCTCGCCA | 0.0809
132 | CAAGTAAA | -0.0198
133 | CGTTGTTC | -0.289
134 | CGTGCTAC | -0.257
135 | ACCTGGTC | -0.12
136 | CTGGTAGA | -0.0157
137 | ACAATTTC | 0.057
138 | CGGGGTAA | 0.0384
139 | CCATCCAA | 0.00739
140 | CATTCGGA | 0.15
141 | ATCTGCCG | -0.0445
142 | CTCTGTAA | -0.0221
143 | GCTTCCGA | -0.133
144 | ATATGGTG | -0.0771
145 | GACCAGTA | -0.0666
146 | CCAACTTC | -0.117
147 | GTGAATTA | 0.0879
148 | ACCCCCAG | -0.0546
149 | AGCTTCCA | -0.148
150 | CTTAGAGC | -0.0805

Row | Sequence | PBM E-score
151 | ACAGAGGT | -0.21
152 | AGCGATAA | -0.173
153 | CGTTGAAC | -0.169
154 | GGGTGGTA | -0.222
155 | CGTAACAC | 0.139
156 | ACAGGCCT | -0.209
157 | CAACCTAC | -0.195
158 | AAGTAGGG | -0.0622
159 | AGGGCCGG | -0.282
160 | AACTGGGC | -0.315
161 | AACTTTTC | 0.0287
162 | GGGACGCA | -0.165
163 | AACATCCC | -0.252
164 | ACGAGAAT | -0.125
165 | CAGTATTA | -0.0524
166 | CTATCCCC | -0.29
167 | CGCACTAG | -0.19
168 | AATTGACC | -0.0998
169 | AGGTTCCC | -0.214
170 | CAGGACGA | -0.0439
171 | CGCTCTAG | -0.196
172 | AAACTGCA | -0.0958
173 | AGAGCTAT | -0.225
174 | ACCGGAAG | -0.0509
175 | GTCTACAC | 0.0747

Row | Sequence | PBM E-score
176 | CCTACTGC | -0.163
177 | CATCCCTA | 0.0427
178 | AACTAACA | 0.0696
179 | GTCAGTAA | 0.0875
180 | AATATCCG | -0.0742
181 | AACCACTC | 0.104
182 | AGTAACCA | 0.0807
183 | AAGCATCT | -0.268
184 | CGAGCGAC | -0.00147
185 | CCCTATCA | -0.155
186 | ACCTATGA | 0.165
187 | ACAATTGT | -0.0352
188 | CCCCTCAA | -0.184
189 | GGGCTTAC | -0.23
190 | AAGGTGTG | -0.121
191 | CTACGTCC | -0.239
192 | GTACCCCA | -0.0275
193 | ACAGGGCT | -0.265
194 | ACATTACC | 0.0246
195 | ATTTAAGA | 0.16
196 | ACGTAGCC | -0.186
197 | ATTAGCCA | 0.241
198 | GTCTATCA | 0.0174
199 | CCGGGGAC | -0.126
200 | ACATGATA | 0.0112

Row | Sequence | PBM E-score
201 | ACAGGAAA | -0.0551
202 | ACCTCGAA | 0.00861
203 | GCTGTTCA | 0.0639
204 | GAATACAC | 0.0359
205 | ACAGAATA | 0.0768
206 | TAGGACAA | -0.00562
207 | GCAAGTGA | 0.167
208 | AGGTTACA | 0.109
209 | CCCGTGGC | -0.101
210 | AATCCAAA | 0.113
211 | GCCACCTA | -0.116
212 | GTGCAGCA | -0.233
213 | CATGGGCA | -0.0215
214 | AATTCACG | -0.195
215 | CCAAGTGC | -0.302
216 | GACCCGGA | -0.00849
217 | CATACCCG | 0.0361
218 | GACATGGC | -0.0552
219 | ACACGCCC | -0.151
